# Laboratory results reported in PubChem BioAssay AID651820 (National Center for Advancing Translational Sciences (NCATS), 2012).
# Among all 340,000 compounds or so, about 12,000 (3.5%) were called active. The inconclusive results got no clear call from the source; some entries with a clear call stand among them for comparison. Calls come from the whole dose curve; as a rule, active = well fitted inhibition curve with a large enough effect; inconclusive = small, poorly fitted or top-dose-only effect, or another doubt; inactive = no such curve, though single readings can be large or run the other way. Potencies of inconclusive entries are left out as doubtful fits.
# Experiment: qHTS Assay for Inhibitors of Hepatitis C Virus (HCV)
# Conditions: Huh7.5.1 HCVcc-Cre (HCVcc is cell-culture hepatitis C virus) infection, luciferase reporter, 44 h; series mostly up to 41.8 µM
# In short: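 Infectious HCVcc-Cre (~0.5 moi) was added to cells just after compound, with cells seeded 4 h earlier at 1,000 per well. Luciferase activity after 44 h culture reported infection; substrate was incubated 15 min at room temperature before reading.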
# Potency is the fitted concentration of half-maximal effect; tags give direction and shape of the fitted curve.
row,SMILES,Potency
1,O=C1CCN(S(=O)(=O)c2ccccc2)CCN1CCOCc1ccc(C(F)(F)F)cc1,active: 10 µM
2,CCc1nc(SCc2nc3ccccc3[nH]2)c2oc3ccccc3c2n1,active: 7.94 µM
3,O=C(NCC1CCCO1)c1cc(S(=O)(=O)Nc2ccc(Br)cc2)ccc1Cl (stereo unspecified),"inconclusive [inhibitor, partial curve]"
4,CCCN(CCC)CCNC(=O)C1CC(=O)N(c2ccc(OC)cc2)C1c1ccc(OC)cc1 (stereo unspecified),"inconclusive [inhibitor, single point]"
5,O=C(CCN1C(=O)/C(=C/c2ccc(F)cc2)SC1=S)Nc1cccnc1,"inconclusive [inhibitor, single point]"
6,Cc1cc(C(=O)CSc2ccc(Cl)cc2)cc(C)c1OC(=S)N(C)C,active: 10 µM
7,CC(C)NC(=O)N(C)C[C@H]1Oc2ccc(NC(=O)Nc3ccccc3)cc2C(=O)N([C@@H](C)CO)C[C@@H]1C,inactive
8,CN(C)c1ccc(C(=O)Nc2ccc(O)c3c(=O)cc(-c4ccccc4Cl)oc23)cc1,active: 31.6 µM
9,Cc1nc(COC(=O)c2c(C)nn(-c3ccccc3)c2C)cs1,"inconclusive [inhibitor, partial curve, poor fit]"
10,COc1ccc(-n2sc3c(c2=S)-c2cc(OC)ccc2NC3(C)C)cc1,"inconclusive [inhibitor, full curve]"
11,Cc1ccc(Nc2c(-c3ccc(N4CCOCC4)cc3)nc3ncccn23)c(C)c1,"inconclusive [inhibitor, single point]"
12,COCCNC(=O)CCSc1nc(-c2ccc(OC)cc2)cc(C(F)(F)F)n1,"inconclusive [inhibitor, partial curve]"
13,CC(=O)N1CCN(C(=O)COC(=O)c2oc3ccccc3c2C)CC1,inactive
14,COc1ccccc1C(=O)Nc1sc2c(c1C(=O)NCc1ccco1)CCCC2,"inconclusive [inhibitor, partial curve]"
15,COc1ccc(CNC(=O)c2ccc3c(=O)n(-c4ccccc4)c(=O)[nH]c3c2)cc1,"inconclusive [inhibitor, single point]"
16,COC(=O)c1sc2ccccc2c1-n1cccc1C(=O)C(=O)Nc1ccc(OC)cc1,"inconclusive [inhibitor, full curve, poor fit]"
17,O=C(Nc1ccccc1-c1nnn(CC(=O)N2CCN(c3ccccc3)CC2)n1)c1cccs1,active: 12.6 µM
18,Cc1ccc(N(C(=O)C(F)(F)F)C(C(=O)NC2CCCCC2)c2cccs2)cc1 (stereo unspecified),inactive
19,COc1cccc2c1C(=O)c1ccc3ccccc3c1C2=O,"inconclusive [inhibitor, full curve]"
20,O=C(COC(=O)C1=NN(c2ccccc2)C(=O)CC1)Nc1nc(-c2ccc(F)cc2)cs1,"inconclusive [inhibitor, single point]"
21,CC(C)C(c1nnnn1Cc1ccccc1)N1CCN(Cc2ccc3c(c2)OCO3)CC1 (stereo unspecified),"inconclusive [inhibitor, single point]"
22,O=C(Nc1ccc(F)c(Cl)c1)c1nsc(Cl)c1Cl,"inconclusive [inhibitor, single point]"
23,CCCCSc1ccc2nc(-c3ccc(C#N)cc3)cn2c1,"inconclusive [inhibitor, single point]"

row,SMILES,Potency
1,CCn1cc(CNC(=O)c2ccc(OC3CCN(Cc4ccccn4)CC3)cc2)cn1,active: 10 µM
2,Cc1cccc2nc(-c3ccco3)c(Nc3ccccc3)n12,"inconclusive [inhibitor, single point]"
3,Cc1cc(C)c(S(=O)(=O)N2CCCOC2CNC(=O)C(=O)NCc2ccncc2)c(C)c1 (stereo unspecified),inactive
4,BrC(=C\c1ccccc1)/C=N/n1cnnc1,active: 10 µM
5,COCCNC(=O)c1ccc(CN2CCC(Cc3ccccc3)CC2)cc1,inactive
6,Cc1ccnc2c1ccc1cccnc12,active: 2.24 µM
7,O=C(COc1ccccc1Cl)Nc1ccc2c(c1)OCCO2,"inconclusive [inhibitor, single point]"
8,CCCCN(CCCNC(=O)c1c(C)cc(=O)oc1C)c1ccccc1,active: 3.98 µM
9,COCCN(C(=O)CSc1ncn[nH]1)c1c(N)n(Cc2ccccc2)c(=O)[nH]c1=O,inactive
10,O=C(CCN1CCOCC1)Nc1ccc(Cl)cc1,inactive
11,O=C(NCCCN1CCOCC1)c1ccc2ccccc2c1,"inconclusive [inhibitor, single point]"
12,CCc1cc2c(=O)c(-c3ccc4c(c3)OCCO4)coc2cc1OS(C)(=O)=O,active: 11.2 µM
13,COc1ccc(N2CCN(CCCNC(=O)C3CCC(CNc4nc(=S)[nH]c5ccccc45)CC3)CC2)cc1 (stereo unspecified),active: 2.51 µM
14,O=C(Cc1ccccc1)Nc1ccccc1CO,"inconclusive [inhibitor, single point]"
15,CC(C)N(C(=O)CSc1nn2c(=O)c(C(C)(C)C)nnc2s1)c1ccccc1,"inconclusive [inhibitor, single point]"
16,Cc1ccccc1C(=O)Nc1cc(C(F)(F)F)ccc1-n1cncn1,"inconclusive [inhibitor, partial curve]"
17,C=C(C)CN=C1SC(C(=O)Nc2sc3c(c2C(=O)OC)CCC3)C(N)=C1C(N)=O (stereo unspecified),"inconclusive [inhibitor, single point]"
18,Cc1csc(NC(=O)c2c(-c3c(F)cccc3Cl)noc2C)n1,"inconclusive [inhibitor, partial curve, poor fit]"
19,O=C(OC1CCN(CCCl)CC1)C(c1ccccc1)c1ccccc1,active: 31.6 µM
20,O=C(/C=C/c1cccs1)Nc1scc(-c2ccccc2)c1C(=O)O,inactive
21,COc1ccc(CCNC(=O)COc2ccc(N(C)S(=O)(=O)c3ccc(Cl)cc3)cc2)cc1,active: 7.08 µM
22,COc1ccc(C2=CC(=O)C[C@H](COCc3ccccc3)N(C(=O)OC(C)(C)C)O2)cc1,"inconclusive [inhibitor, single point]"
23,CC1CCN(c2ccc(C(=O)NCc3ccc4c(c3)OCO4)cc2[N+](=O)[O-])CC1,"inconclusive [inhibitor, partial curve]"
